Reference: the supplement of paper PMC11417369
The other results are listed elsewhere or left out.

Test system: PfAP2-HC AP2 domain (GST-tagged)
Experiment: gcPBM binding intensity (ln(normalized median fluorescence intensity)); higher = stronger DNA binding
Summary of the method: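 Alexa488 anti-GST antibody, scanned at 488 nm, detected GST-tagged P. falciparum DNA-binding domains that had been expressed in E. coli and incubated for 1 h on an Agilent 4 × 180k array. The array carried primer-extended double-stranded 36-bp intergenic genomic probes and negative controls. Binding intensity is the highest Masliner-normalised natural-log median intensity across replicate spots of either orientation of each probe.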

Row | Sequence | gcPBM binding intensity (ln)
1 | TGCTATTTTTTCCTTTTTTTGTATCACAATCATATA [CACACA_negctrl_site1576] | 9.74
2 | TTATACTTTGGGTGGTGTACTATATTATGCTTATAA [XGTACX_site1106] | 10.1
3 | ATTAAACATAAATATGCACACATATACATATATTCA [CACACA_site8850] | 9.79
4 | AGTAATAAAAGTAGAAGTACAATACTTCAAAGATAT [XGTACX_site8562] | 9.89
5 | GTTCTAAAAGTTAATGCATGTTATAAGTTTCCCTCT [TGCATGCA_site94] | 9.57
6 | TATTTCAAAATATGGGTGCAGTTCTTCATGATATAT [GTGCAC_site9658] | 9.65
7 | GTATGCATTATATACACACATACATTTATATATTCT [CACACA_site115] | 10.1
8 | ATTATATACATTTTAGTGCATTACATAATAATATAA [GTGCAC_site9836] | 9.54
9 | ACTATTTAATATAGGGTGCAACTTTTTCAAGTAAAT [GTGCAC_site9853] | 9.58
10 | TTTCTTTTTTGATGCGTGCACATTTGTTTATTTTTC [GTGCAC_site9792] | 9.89
11 | TTTATTTATTAATACACACACACACCCAGACAAAAT [CACACA_site4292] | 11.3
12 | TATCTTTTTACAATAGTGCATATGTTATCATTAATA [GTGCAC_site9489] | 9.65
13 | AGATATATAAATATTACACACTATATATCTATTTAT [CACACA_site6466] | 9.75
14 | ATTTGCCCATTTAATTAACACACAAATGTTTATATT [CACACA_site8145] | 9.94
15 | ACCCCCATATTCTTTTTACACACTTGAATAAAAAAT [CACACA_site8319] | 9.78
16 | ATTTTTCAATTATGTAGTACATTGATATTTTCATTT [XGTACX_site5369] | 9.72
17 | ATTCATTTTATTTTTTCACACACACCGATATATATA [CACACA_site9097] | 10.2
18 | TTTTTTTTTTTGTGGTGTACCTTTATTTCCTTTTAG [XGTACX_site6934] | 9.59
19 | AAAGGGGAAAATATTATACATATAATAAATCCGTAT [XGTACX_negctrl_site355] | 9.56
20 | TTTATATTTATATTGGGTACATAAAAAGCTTGAAAT [XGTACX_site8248] | 9.34
21 | ATTTTTATTCTTATTACACACCTAAATATAAAATAT [CACACA_site2064] | 9.64
22 | TGTGTTCATATATGCACACGCATATATATTATTGTT [CACACA_site3822] | 10.1
23 | TGTGTCCATTGAACAGTGCAATAAAAACTTTTACAT | 9.73

Row | Sequence | gcPBM binding intensity (ln)
24 | ATAAATATGGAGCACACACACATAAACATACATATA [CACACA_site421] | 11.1
25 | TTCATTATTATTAACATACACACGTGTTATATACAC [CACACA_site4112] | 9.9
26 | TTTTTACTATAATTAAAATTAACAAAAGAAAATGAT [GTGCAC_negctrl_site52] | 9.22
27 | AAAAAATACAAGAAATGTACTCAAGCATATATTAAT [XGTACX_site3325] | 9.75
28 | TTCATTTTTTAAGCATCACACACGAAAGAACAAAGT [CACACA_site1122] | 9.91
29 | TTTACATCCAAAAACTGTACACTTATTTTATAATTC [XGTACX_site5332] | 9.7
30 | ATATATATAATATGTAGTACTTTCCTCTCAAATCAT [XGTACX_site7766] | 9.74
31 | ATCAAAAATATAAAAAATATAAACAATTTATTATCA [CACACA_negctrl_site768] | 9.53
32 | GAATCATATTTAAACACACATACATATATATATATA [CACACA_site3352] | 9.79
33 | AATAAGTAACAAAATACACACATATATATAATTATA [CACACA_site1837] | 10.1
34 | TCATAAATTAATAATACATGCATAATATTAAAATGT [TGCATGCA_site5] | 9.6
35 | AAAAATATATAAGAGAGTACATAAAATAAATTAATT [XGTACX_site1534] | 9.72
36 | TTTAATAATATAATGTGTACTTAAAAATTTATATAT [XGTACX_site5821] | 9.44
37 | TCATTTCAATACACAAGTACGTATATGGTTATATTG [XGTACX_site6021] | 9.67
38 | AATATAAAATAATGCACACATAAACAAAAAATCAAA [CACACA_site1371] | 9.99
39 | TCATTTTATTATTCTACACACTTATCTATAATTACA [CACACA_site6168] | 9.89
40 | TTACATGTACAAAAGTTGCACTTCATACACTTTTAT | 9.81
41 | ATTCTATATATGTGCACACAAAAGATATATATATAT [CACACA_site2124] | 10
42 | CGAAGGTTTGGCCATGCATGTTATAAGAATATATGT [TGCATGCA_site441] | 9.51
43 | AGTATATCAAAATACATACACACATTTGTATATACA [CACACA_site2697] | 9.87
44 | TACGTTATGTTGAATAGTACAATTTGGTGAACAGGT [XGTACX_site1729] | 9.72
45 | GTCCTCATCCACTATGCACACAAAAAAGAAATACAC [CACACA_site9131] | 9.87
46 | TTTTTTTTTTTTTTTTGTACACAAATTTATTGTCTA [XGTACX_site2680] | 9.52

Row | Sequence | gcPBM binding intensity (ln)
47 | TTTCCAAATTGTTGACGGACACTCACGAATAGTTAT [XGTACX_site5720] | 9.63
48 | CATATGTATATGACTACACACAAGGGTGTACATATA [CACACA_site1164] | 9.94
49 | ACATGAAGATATTTTTGTCCGTACAAATTCATATGA [XGTACX_site1837] | 9.51
50 | ATATTTTTTTATAAATGTACAAAAATAATATTGCAT [XGTACX_site7399] | 9.48
51 | AAAATAATGTTTATATGTACATATATATATATATAT [XGTACX_site8815] | 9.92
52 | CCATTTACCCTTGCCATGCACACTTTTTTATAGAAA [CACACA_site3505] | 9.91
53 | TTATAAAAATAATATCGTACAAATGATAAAGATTAA [XGTACX_site4893] | 9.53
54 | TGAATTCGTCAAAAGCGTACATATAATATCTTCTTG [XGTACX_site8842] | 9.63
55 | ACATATATATATATATATAATATTTTATATTTATTA [CACACA_negctrl_site713] | 9.44
56 | TATATAGTAATATATACACACACTTGTCTTGTAAAA [CACACA_site990] | 10.2
57 | TTTTTATTTAATATTTTAAAAAAAAATCATTTTTAA [XGTACX_negctrl_site207] | 9.16
58 | AAGATTAATATTTTATGTACATATGTAATATATATG [XGTACX_site4367] | 9.65
59 | ATATTTTTATGATGTATCCAAGAAATGGAACTATAT [CACACA_negctrl_site1268] | 9.4
60 | AAGAATACACCACGCACACACACTTGAGAAAAAATA [CACACA_site3828] | 11.2
61 | ATATATACCTAAGACACACACATATAGATTTATATA [CACACA_site6498] | 10.4
62 | TTCTTTGTGGTATAGATACACACTATATTAATATGA [CACACA_site2150] | 9.97
63 | ATTTTAGATATCCTGCGTACACAAATTGCTTTATTT [XGTACX_site7149] | 10.2
64 | AAAATTTCAATAAATACACACATATATATATATATT [CACACA_site1685] | 9.76
65 | AAATAATATATGAATGCACACAGTAAAAATTAAAGA [CACACA_site2252] | 10
66 | ATAAATTTATATACTTGTACATATATATATTACATA [XGTACX_site6697] | 9.67
67 | TATATATACATATACACACACACACCCATATATATA [CACACA_site2246] | 11.1
68 | TTTGAAATAAAAAGGTGTACACTCGATTAATAAATA [XGTACX_site6943] | 9.65
69 | ACTATCATTTTTTTAACACACAAAAAAAATAAAATA [CACACA_site3519] | 9.58

Row | Sequence | gcPBM binding intensity (ln)
70 | TTTTAGCACTTATTATAAGATATCAAAAAGATGGGT [XGTACX_negctrl_site325] | 9.44
71 | TATCTTATTTTAAAAGTGCATGGAAAGGGGTTTTTG | 9.46
72 | TGTATAAGTGCCGTTATACACACGTTATATAAATAT [CACACA_site438] | 9.61
73 | TTTTTTATATTAAATGAAGAATATACAAAATTTTAA [CACACA_negctrl_site558] | 9.27
74 | TTTTGTTAGTTTTTTTTCTTATATTACATTTTCACG [CACACA_negctrl_site1466] | 9.65
75 | ATGTAGTCTCAAGACTGTACAAACAAGTAAATAAAA [XGTACX_site4120] | 9.68
76 | ACATGTGAAGGGAACATAAATTGGGGTTTTATATTG [XGTACX_negctrl_site508] | 9.58
77 | AAATTATAAATAATTTGTACATAAAAATTGGTAAAG [XGTACX_site5197] | 9.78
78 | GAATATAAAAAAGAATGTACTTGAACAGTCCTAAAA [XGTACX_site745] | 9.63
79 | TCCATCCACATATATGTACACACATATATATATATA [CACACA_site8970] | 9.88
80 | GTTAAGGGTATATATACACACATATGTAATACATGA [CACACA_site5650] | 9.93
81 | ACAATTTTATTTAAAGTGCATGTAAAATTAAAACTT | 9.53
82 | TATACATTTATGTACACACACATATATGTATATTTA [CACACA_site2966] | 9.99
83 | AATAAATATCAATACACACACACAAAAGTGAATAAA [CACACA_site3763] | 10.4
84 | AAAGGAAGAAAAAATAGTACATATATATATATATAA [XGTACX_site766] | 9.58
85 | ATGAAATATATTATATGTACATATTTATTTTTTATA [XGTACX_site7319] | 9.71
86 | ATTTTTTACGTATAGTACAAAGTTTTATGATACATA [CACACA_negctrl_site965] | 9.61
87 | CATTATAAAAAATAAAAAAGAAATAATTGTATATGC [CACACA_negctrl_site478] | 9.62
88 | AAATAGTAAATAAGGGGTACAAAAAAAAAAAAAAAA [XGTACX_site8362] | 9.32
89 | AAATGCTAAAAATAGAGTACAGATAACGAAAAGTGT [XGTACX_site8830] | 9.95
